Test results as given in paper PMC10112131, “Pharmacological Elevation of Cellular Dihydrosphingomyelin Provides a Novel Antiviral Strategy against West Nile Virus Infection” (Antimicrobial Agents and Chemotherapy, 2023).

Target: T1, ceramide desaturase (Des1) (Homo sapiens, UniProt O15121)
T1 sequence (O15121 1-323): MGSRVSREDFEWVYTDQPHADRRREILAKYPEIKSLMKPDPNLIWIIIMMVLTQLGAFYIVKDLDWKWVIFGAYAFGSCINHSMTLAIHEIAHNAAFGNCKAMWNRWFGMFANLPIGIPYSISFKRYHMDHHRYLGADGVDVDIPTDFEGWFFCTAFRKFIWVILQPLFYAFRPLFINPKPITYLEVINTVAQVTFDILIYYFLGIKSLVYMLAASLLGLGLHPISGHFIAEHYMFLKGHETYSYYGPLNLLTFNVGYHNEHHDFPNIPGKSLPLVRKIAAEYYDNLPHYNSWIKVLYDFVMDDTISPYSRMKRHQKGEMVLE
Assay: Des1 activity in intact T98G cell cultures (dhCerC6NBD conversion)
Settings: 10 μM

## O=C(NCCCCCCCCCCCCNC(=O)c1cc(O)c(O)c(O)c1)c1cc(O)c(O)c(O)c1 [AL-088, N,N′-(dodecane-1,12-diyl)bis(3,4,5-trihydroxybenzamide)]
  Conversion of dhCerC6NBD to CerC6NBD (Des1 activity): reduction in dhCerC6NBD conversion

## O=C(NCCCCCCCCCCCCNC(=O)c1ccc(O)c(O)c1O)c1ccc(O)c(O)c1O [AL-274]
  Conversion of dhCerC6NBD to CerC6NBD (Des1 activity): reduction in dhCerC6NBD conversion
